This note sets out measurements from ChEMBL document CHEMBL5308541, “MAIP: An Open-Source Tool to Enrich High-Throughput Screening Output and Identify Novel, Druglike Molecules with Antimalarial Activity” (ACS Med Chem Lett, 2023).

As a reminder, the % Inhibition is the drop in the measured response relative to a control, in per cent.

Screen size: about 150,000 compounds; about 540 (0.36%) showed an effect of 50% or more. This is one part of the list.

The test system of the test is Plasmodium falciparum. The experiment in a line: Primary screen in NF54 nanoGlo assay, in single point, at 2uM, 72h; a lower Z score goes with more inhibition. The test is classed as functional, Erythrocyte. To be noted: timepoint 72 hour.
Regarding `CCN1CCC[C@@H]1CNC(=O)c1ccc(-c2cc(C)c3nccn3c2)cc1`, the “% Inhibition” value is recorded as -2% and the Z score was found to be 0.29.

As for `O=C(NCc1csc(-c2cnccn2)n1)c1cc(-c2ccccc2O)[nH]n1`, the “% Inhibition” value is -5% and the Z score is listed as 0.76.

For the molecule `Cc1nc(C)n(C[C@H]2CCCN(C(=O)c3cnn4ccncc34)C2)n1`, the “% Inhibition” value is recorded as -9% and the Z score stood at 1.58.

For `CCOc1cc(N2CC[C@H](N3CCN(C(C)C)CC3)C2)nc(C)n1`, the “% Inhibition” value worked out at 13% and the Z score is on record as -2.27.

As to `Cc1noc(-c2cccnc2N2CC[C@H](NC(=O)c3cc4ccccc4[nH]3)C2)n1`, the “% Inhibition” value is listed as -7% and the Z score is listed as 1.29.

Take `Cc1cccnc1NCCNc1nccc(-c2ccncc2)n1`: the “% Inhibition” value is recorded as -1% and the Z score was 0.15.

Take `COc1cncc(-c2ccc(C(=O)NC3CNCC3O)cc2)c1` (configuration not stated): the “% Inhibition” value came to 1% and the Z score is on record as -0.09.

On to `c1ccc(CN2CCC(CCNC[C@@H]3CCCN4CCCC[C@H]34)CC2)cc1`, for which the “% Inhibition” value was 57% and the Z score is listed as -10.03.

Consider `Nc1ccnc2c(-c3cccc(C(=O)NCCN4CCCCC4)c3)cccc12`, for which the “% Inhibition” value was 14% and the Z score is -2.39.

As to `O=C(N1CC[C@H](OC(F)F)C1)C1(O)CCc2cc(Br)ccc2C1` (some centres not stated), the “% Inhibition” value was -16% and the Z score is recorded as 2.43.

As to `CCNC(=O)c1[nH]nc(-c2ccc(OC)cc2O)c1-c1ccc(-c2ccccc2)cc1`, the “% Inhibition” value is -7% and the Z score was 1.07.

With `O=S1(=O)CCCN1c1cc(NC2CCN(CCN3CCOCC3)CC2)ccc1F`, the “% Inhibition” value was -4% and the Z score turned out to be 0.97.

For `c1ccc2c(NCC(C3CCOC3)N3CCOCC3)nc(-c3ccsc3)nc2c1` (configuration not stated), the “% Inhibition” value is given as -10% and the Z score came to 1.51.

Consider `O=C(N[C@@H]1CCCNC1)c1ccnc(OCc2ccccc2)c1`, for which the “% Inhibition” value is recorded as -6% and the Z score was 1.02.

Turning to `CN(Cc1cc(-c2ccncc2)no1)c1ncc(F)c(N2CCCC2)n1`, the “% Inhibition” value is listed as -2% and the Z score is listed as 0.4.

Consider `O=C(CNS(=O)(=O)c1ccc2c(c1)COC2)Nc1ccc2[nH]ccc2c1`, for which the “% Inhibition” value is given as -11% and the Z score worked out at 2.43.

On to `Cc1noc(C)c1COc1ccc(CC(=O)Oc2ccc(Cl)c3cccnc23)cc1`, for which the “% Inhibition” value is -3% and the Z score is 0.48.

For the molecule `c1ccc(-c2nc(NCc3ccnc(O[C@H]4CCOC4)c3)no2)cc1`, the “% Inhibition” value is -19% and the Z score is listed as 3.32.

On to `COc1ccc2cc([C@H](C)NC(=O)NC3(CO)CCCC3)ccc2c1`, for which the “% Inhibition” value is -10% and the Z score stood at 1.64.

In the case of `O=C(CN1CC2(CCCC2)CC1=O)N1CCOc2ccc(Cl)cc2C1`, the “% Inhibition” value is -5% and the Z score turned out to be 0.78.

`COCC[C@H](NCC(=O)N1CCC(C(=O)N2CCCCCC2)CC1)C(C)(C)C`: the “% Inhibition” value is reported as 1% and the Z score is listed as -0.13.

As for `CO[C@H]1C[C@H]2CC[C@@H](C1)N2C(=O)CCCn1nc(C)cc1C`, the “% Inhibition” value is -2% and the Z score is reported as 0.34.

Take `Cc1ccc2[nH]c(CN[C@@H]3CN(C)C[C@H]3c3cncn3C)cc2c1C`: the “% Inhibition” value turned out to be 15% and the Z score is recorded as -2.3.

In the case of `COc1cccc([C@@H]2CCCN2c2nc(-c3ccncc3)cnc2N)c1`, the “% Inhibition” value was -4% and the Z score turned out to be 0.61.

For `Nc1nc2c(c(NCCc3cn[nH]c3)n1)CCN(C1CCOCC1)CC2`, the “% Inhibition” value was found to be 6% and the Z score is recorded as -1.04.

As for `Cc1cccc(N2CCC(NCc3cc(C)cc(CN4CCN(C)CC4)c3C)CC2)c1`, the “% Inhibition” value is on record as 35% and the Z score is -7.04.

`CN1CCN(C2(CNC(=O)C3(N4CCCC4)CCCC3)CCCCC2)CC1`: the “% Inhibition” value came out at 16% and the Z score is -3.35.

With `CN1CCN(C(=O)c2ccc(NCc3cccc4[nH]ccc34)cc2)CC1`, the “% Inhibition” value is -4% and the Z score was 0.59.

With `CN1CCN(c2ncc(F)c(Nc3ccc(O)cc3)n2)CC1`, the “% Inhibition” value is -14% and the Z score was determined as 2.08.

Turning to `O=C(N[C@H]1CCCN(C2CCCCC2)C1=O)c1ccnc2ccccc12`, the “% Inhibition” value came to 3% and the Z score is on record as -0.48.

As to `CC(C)NS(=O)(=O)c1cc(NCc2cccc(-c3ccco3)c2)cc(C(=O)N[C@H]2CCCCNC2=O)c1`, the “% Inhibition” value is given as -20% and the Z score stood at 4.34.

On to `CC[C@@H](Nc1cc(OC)nc(COC)n1)C(=O)O`, for which the “% Inhibition” value is on record as -7% and the Z score is recorded as 1.02.

As for `COc1cc2nc(C)sc2cc1NC(=O)N[C@H]1CCCCNC1=O`, the “% Inhibition” value is listed as -13% and the Z score amounted to 2.17.

For the molecule `Fc1ccc(-c2csc(NCCCN3CCN(c4ncccn4)CC3)n2)cc1`, the “% Inhibition” value is on record as -2% and the Z score is recorded as 0.36.

`CO[C@H]1C[C@@H](CNc2nc3cc(F)ccc3o2)N(c2cc(C)ncn2)C1`: the “% Inhibition” value is listed as -2% and the Z score is recorded as 0.34.

As to `O=C(NC1CCNCC1O)c1cccc(-c2cc(C(F)(F)F)ccn2)c1` (configuration not stated), the “% Inhibition” value is -3% and the Z score amounted to 0.44.

For the molecule `Cc1nc(N[C@H]2CCN(C(=O)OC(C)(C)C)C2)cc(-c2ccncc2)n1`, the “% Inhibition” value was -5% and the Z score is listed as 1.04.

For `Cc1cc(N2CCCN(c3noc(-c4ccccc4)n3)CC2)ccn1`, the “% Inhibition” value was determined as 3% and the Z score was -0.5.

Consider `c1ccc(CN2CCN(CCN3CCc4[nH]cnc4C3)CC2)cc1`, for which the “% Inhibition” value was -4% and the Z score is on record as 0.73.

Consider `CCN(c1ccc2[nH]ccc2c1)S(=O)(=O)c1cnn2c1OCCC2`, for which the “% Inhibition” value is listed as -15% and the Z score was found to be 2.59.

For `O[C@H]1CCCN(CCCNc2ncccc2-c2ncon2)C1`, the “% Inhibition” value is listed as -1% and the Z score came out at 0.24.
